Where “and” joins values, the source holds several entries; their conditions need not be identical. Equal entries are not always repeated.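 Growth conditions: 96-well plates. Treatment: test compound, 48 hours, 5 concentrations. Analysis: linear interpolation between bracketing concentrations; unreached endpoints set to highest concentration. The concentration for 50% growth inhibition is given as GI50.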 Calls of active or inactive are those of the source. Cut-off read from the data, not from the text of the source: active = GI50 up to about 1.1 µM and inactive = higher. Where only a bound is given, the exact number is not on record here.

Consider 82 compounds from ChEMBL document CHEMBL1201862, “PubChem BioAssay data set” (2004).

The test system of the experiment is NCI-H322M. Kind of experiment: NCI-60 cell line screen, 48 h.
As for `O=C(CSc1nc2ccccc2c2ccccc12)c1ccccc1`, the GI50 is inactive: > 100 µM.

Consider `C/C=C/C=C/[C@H]1Cc2cc(O)cc(O)c2O1`, for which the GI50 is inactive: > 100 µM. In the case of `C1CNCCNCCN1` it was inactive: > 100 µM. For `Cc1ccc(S(=O)(=O)N/N=C2/C(=O)Nc3c(Cl)cc(Cl)cc32)cc1`, the GI50 is inactive: 74.6 µM.

For `COC[C@@H]1[C@H]2OC(C)(C)O[C@H]2C(=O)N1C(=O)c1ccc(OC)cc1`, the GI50 is inactive: > 100 µM. To `CC(=O)OCCCCn1cnc2c(Cl)nc(Nc3ccccc3)nc21` belongs inactive: > 100 µM; to `O=C1NC(=O)C(C(=O)C(=O)Nc2cccc(C(F)(F)F)c2)C(=O)N1`, inactive: > 100 µM; to `COc1ccc(N2C(Cl)C(=O)C2c2c[nH]c3ccccc23)cc1` (configuration not stated), inactive: > 100 µM.

In the case of `COc1cc2cc(C(=O)N3CC(CCl)c4ccc([N+](C)(C)Cc5ccccc5[N+](=O)[O-])cc43)[nH]c2c(OC)c1OC` (configuration not stated), the GI50 was inactive: 2.9 µM. Take `CN(C)CC/C(=N\Nc1ccc(Cl)cc1Cl)c1ccccc1`: the GI50 is inactive: 27 µM. As for `S=c1sc2c(s1)SCCCCSCCCCSc1sc(=S)sc1SCCCCSCCCCS2`, the GI50 is inactive: > 100 µM. `C/C=C(/CCCCNCCCC)[Si](C)(C)C`: the GI50 is inactive: 14.4 µM. In the case of `CNC1(C(=O)O)CC1` it was inactive: > 100 µM; in that of `c1ccc(Cc2nc(Cc3n[nH]c(Cc4ccccc4)n3)n[nH]2)cc1`, inactive: > 100 µM. To `CC1CC/C(=C\c2ccc(Cl)cc2)C(=O)/C1=C\c1ccc(Cl)cc1` (configuration not stated) belongs inactive: 48.1 µM; to `CCC(C)COC(=O)c1ccc(/N=C\c2ccc(/C=N/c3ccc(C(=O)OCC(C)CC)cc3)cc2)cc1` (configuration not stated), inactive: > 100 µM. In the case of `COc1cc(NS(=O)(=O)c2ccc(C)cc2)c2nccnc2c1` it was inactive: 58.5 µM. As to `OC(c1ccc(-c2ccccc2)cc1)(c1ccc(-c2ccccc2)cc1)c1ccc(-c2ccccc2)cc1`, the GI50 is inactive: > 100 µM.

Consider `O=C(CCC(=O)Nc1ccccc1C(F)(F)F)N/N=C1\C(=N\NC(=O)CCC(=O)Nc2ccccc2C(F)(F)F)C(c2ccc3c(c2)OCO3)Oc2ccccc21` (configuration not stated), for which the GI50 was inactive: > 49 µM. For the compound `CC(C)C1N2CCCCC2[C@@H]2c3[nH]c4ccccc4c3CCN12` (some centres not stated), the GI50 is inactive: > 100 µM. To `COC(=O)C1C2CC3C(OC(=O)C31)C2OC(=O)[C@](OC)(c1ccccc1)C(F)(F)F` (some centres not stated) belongs inactive: > 100 µM; to `COC1=CC(=Nc2c(Cl)cc(Cl)cc2OC(=O)c2ccc([N+](=O)[O-])cc2)C=C(OC)C1=O`, inactive: 17.2 µM; to `CCCCCCCCCCCCCC1=C(O)C(=O)C(CC2=C(O)C(=O)C(CCCCCCCCCCCCC)=C(O)C2=O)=C(O)C1=O`, inactive: > 100 µM. To `CCOc1c(Br)cc(Br)cc1C=C(C#N)C#N` belongs inactive: > 10 µM. To `CCOC(=O)c1ccc(C(=O)C(C(C)=O)C(=O)OC(C)(C)C)[nH]1` (configuration not stated) belongs inactive: > 100 µM; to `NC(=O)/N=C1\NCCC(=O)N1CCc1c[nH]c2ccccc12`, inactive: 23.2 µM. Consider `Cc1ccc(C)c(N2C(=O)C(=O)C(c3nc4ccccc4o3)/C(=N\NC(=O)c3ccccc3O)C2=O)c1` (configuration not stated), for which the GI50 is inactive: 40 µM.

With `NN`, the GI50 was inactive: 671 µM. To `NC(CCC(=O)O)C(=O)NC(Cc1ccc(N(CCCl)CCCl)cc1)C(=O)O` (configuration not stated) belongs inactive: > 100 µM. To `Cc1cc(NC(=S)SCc2ccc(F)cc2)c([N+](=O)[O-])cc1C` belongs inactive: 39.4 µM; to `C/C(=N/NS(=O)(=O)c1c(C)cc(C)cc1C)c1cccc[n+]1[O-]`, inactive: > 100 µM; to `CC[C@]12C=CCN3CC[C@@]4(c5cc(N=O)c(OC)cc5N(C)[C@H]4[C@@](O)(C(=O)OC)[C@@H]1OC(C)=O)[C@@H]32`, inactive: > 100 µM. To `COc1ccc(NC(C)=O)cc1N1C(=O)/C(=C\c2ccccc2)SC1c1cc(OC)c(OC)c(OC)c1` (configuration not stated) belongs inactive: 25.9 µM. `C/C(Cc1ccccc1)=N\NC(N)=S`: the GI50 was inactive: > 100 µM.

For the compound `COc1ccc2nc3cccc([N+](=O)[O-])c3c(NCCC(=O)O)c2c1`, the GI50 was inactive: > 10 µM.

In the case of `Cn1ncnc1CCc1ccccc1`, the GI50 was inactive: > 100 µM. In the case of `O=[N+]([O-])c1ccc(/N=N\c2c(O)ccc3ccccc23)c([N+](=O)[O-])c1` it was inactive: > 100 µM; in that of `COc1cc(Nc2cnc3ccc(N)cc3n2)cc(OC)c1OC`, inactive: > 62.5 µM. In the case of `ClC(Cl)=C1C(=C(Cl)Cl)C(Cl)(Cl)C1(Cl)Cl`, the GI50 was inactive: 12.2 µM. To `C=C[C@@]1(O)CCCC[C@@H]1CC(Sc1ccccc1)Sc1ccccc1` belongs inactive: 17.1 µM.

Consider `COC1=CC(=O)c2c(c(-c3csc(C)n3)cn2C)C1=O`, for which the GI50 was inactive: 8.75 µM. To `Cc1ccc(C)c(N2C(=O)C(=O)C(c3nc4ccccc4s3)C(=O)C2=O)c1` belongs inactive: 71.8 µM; to `CC(=O)OC(/C=C/c1ccccc1)P1(=O)N(CC(C)(C)C)[C@@H]2CCCC[C@H]2N1CC(C)(C)C` (some centres not stated), inactive: 11.1 µM and inactive: 10.9 µM.

Consider `N#Cc1c(-c2ccccc2)c(C#N)c(=S)n(C2OC(CO)C(O)C(O)C2O)c1O` (configuration not stated), for which the GI50 is inactive: > 100 µM. On to `CCOC(=O)C(C(C)=O)C1CC=CC1` (configuration not stated), for which the GI50 is inactive: > 100 µM. For `CCOC(=O)C(C)(C)C(O)C(C)C` (configuration not stated), the GI50 is inactive: > 100 µM. Turning to `Cc1[nH]nc(-c2ccon2)c1N=O`, the GI50 was inactive: 80 µM. In the case of `C[C@]12CCC(=O)C(O)=C1CCC2=O` it was inactive: > 100 µM. With `C/C=C(\C)C(=O)OC1C(C)=C2C(C1OC(=O)CCCC)C(C)(OC(C)=O)CC(OC(=O)CCCC)C1(O)C2OC(=O)C1(C)O` (configuration not stated), the GI50 was active: 0.566 µM. `[O-][S+](Cc1ccccc1)c1nc2ccccc2nc1-c1cccs1` (configuration not stated): the GI50 is inactive: 15.6 µM. In the case of `NNC(=O)c1nn[nH]c1SSc1[nH]nnc1C(=O)NN` it was inactive: > 100 µM. To `CCC/C(Cl)=N/OC(NC(=O)OCC)(C(F)(F)F)C(F)(F)F` belongs inactive: > 100 µM; to `C=C(C)[C@H]1C=C[C@@H](OC(C)=O)[C@@]2(COC(C)=O)[C@H](OC(=O)CCC)[C@H]3[C@@H](OC(C)=O)[C@@H](C)C[C@]3(O)C(=O)[C@@](C)(OC(C)=O)[C@H]12`, inactive: 84.7 µM; to `Cc1nc(C)c(C(=O)NNC(=O)c2ccccc2)cc1C(=O)NNC(=O)c1ccccc1`, inactive: > 100 µM. In the case of `CCN(CC)CC(O)C1CCC(c2ccccc2)CC1` (configuration not stated) it was inactive: 42.1 µM; in that of `O=C1CCC2c3ccccc3NCN12` (configuration not stated), inactive: > 100 µM. For the compound `O=C1NC(=O)[C@@H](OCC2CCCCC2)[C@@H]2OCC3OC(C(O)C3O)C12` (some centres not stated), the GI50 was inactive: > 100 µM. On to `CSc1c(C#N)c2n(c3ccccc13)c1ccccc1[n+]2C`, for which the GI50 was inactive: 34 µM. For `O=c1[nH]c2c(c(=O)[nH]1)SC(c1ccccc1)C2` (configuration not stated), the GI50 is inactive: 49.3 µM. As to `Cc1oc2c(cc(O)c3cc(O)ccc32)c2cccc1-2`, the GI50 is inactive: > 100 µM. Take `CCOC(=O)CC(=O)CSc1c(-c2ccccc2)c(=O)n(-c2ccccc2)c(=S)n1-c1ccccc1`: the GI50 was inactive: > 100 µM. On to `O=C(c1ccccc1)c1c(CNCc2ccccc2)n(C(=O)c2ccccc2)c2ccccc12`, for which the GI50 was inactive: 53.6 µM. To `COc1cc(/C=C/C(=N\NC(N)=S)c2sc(NNC(C)=O)nc2C)ccc1O` belongs inactive: > 100 µM; to `CC(C)N(C(=O)C12C3C4C1(I)C1C2C3(I)C41C(=O)N(C(C)C)C(C)C)C(C)C` (configuration not stated), inactive: > 100 µM.

Take `Cc1cn([C@H]2C[C@](C)(CO)N(C)O2)c(=O)[nH]c1=O`: the GI50 is inactive: > 100 µM. In the case of `CN(C)c1ccc(/N=C2/C=CC(=C(C#N)C#N)c3ccccc32)cc1` it was active: 0.434 µM. In the case of `C(=N\Nc1nnc(-c2nnc(N/N=C/c3ccccc3)o2)o1)/c1ccccc1` it was inactive: > 10 µM. For `O=C1CCc2ccc(O)c(c2)Oc2ccc(cc2)C(Sc2ccccc2)CCO1` (configuration not stated), the GI50 was inactive: 11.6 µM. Take `CC(=O)n1cc(C2CC23N=C(c2ccccc2)OC3=O)c2ccccc21` (configuration not stated): the GI50 is inactive: 38.6 µM. In the case of `COC(=O)NC(Nc1ccc(Cl)cc1Cl)(C(F)(F)F)C(F)(F)F`, the GI50 was inactive: > 100 µM. In the case of `CCCC(=O)Nc1cc(/C=C/C(=O)N2C[C@@H]3C[C@]34C2=CC(=O)c2[nH]cc(C)c24)n(C)c1` it was active: 0.414 µM; in that of `COCOCCC#CCO`, inactive: > 100 µM; in that of `COc1cc(Br)c(/C=N/N=C(\N)NO)cc1OC`, inactive: 4.62 µM. In the case of `O=S(=O)(O)c1cc(S(=O)(=O)O)c2c(/N=N/c3cccc4ccccc34)c(O)ccc2c1` it was inactive: > 100 µM. As to `C=C1CC(OC)(C(O)C(=O)N[C@H]2OCO[C@H]3C2O[C@H](C[C@H](O)COC)C(C)(C)C3OC)O[C@H](C)[C@@H]1C` (some centres not stated), the GI50 is active: < 0.00773 µM.

On to `CCO/C=C\C12CCCC1NC(c1ccccc1)(c1ccccc1)O2` (configuration not stated), for which the GI50 was inactive: > 100 µM. With `CN=S(=O)(C[C@]1(O)CC2OC1C1OC(C)(C)OC21)c1ccccc1` (some centres not stated), the GI50 was inactive: > 100 µM.

Turning to `C=C(C)[C@@H]1CC[C@]2(C)CC[C@]3(C)[C@H](CC[C@@H]4[C@@]5(C)CC[C@H](OC(=O)c6ccccc6)C(C)(C)[C@@H]5CC[C@]43C)[C@@H]12`, the GI50 was inactive: > 100 µM.

Consider `Cc1ncc([N+](=O)[O-])n1CC[N+](C)([O-])CCCCn1ccnc1[N+](=O)[O-]` (configuration not stated), for which the GI50 is inactive: > 100 µM.

For the compound `Oc1ccc([I+]c2ccccc2)cc1O`, the GI50 was inactive: 22.4 µM. Consider `CC(=O)Nc1ccc2oc(=O)c3ccccc3c2c1`, for which the GI50 is inactive: > 100 µM. For the compound `COc1ccc2[nH]c(Cl)c(/C=C3/C(=O)Nc4cc(C)c(OC)cc43)c2c1`, the GI50 was inactive: 11.6 µM.
